{"source": "a collection of fitness landscapes (doi:10.1038/s41467-024-54723-y)", "note": "Over roughly 18,000 sequences, “TetR repression strength (sort-seq, GFP reporter)” has its median near 0.23; the highest 2% begin near 0.68. This is one part of the list."}
{"target": "TetR (class B, Tn10) (UniProt P04483)", "sequence (P04483 whole entry)": "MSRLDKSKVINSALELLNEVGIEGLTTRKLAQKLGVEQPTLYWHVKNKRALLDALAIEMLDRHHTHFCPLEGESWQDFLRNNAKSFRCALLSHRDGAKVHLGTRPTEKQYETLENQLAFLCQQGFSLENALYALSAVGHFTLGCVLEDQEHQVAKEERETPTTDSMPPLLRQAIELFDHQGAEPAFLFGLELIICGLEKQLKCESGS", "assay": "TetR repression strength (sort-seq, GFP reporter) (relative to tetO2 = 1); higher = stronger repression", "conditions": "E. coli", "summary_of_the_method": "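Three independent transformations of E. coli SIG10-MAX were made with a low-copy plasmid library randomizing eight operator positions between a constitutive promoter and sfGFP, with constitutive TetR. Following 5 h at 37 °C in LB plus 50 µg/mL chloramphenicol, 10^6 cells went through FACS into 13 fluorescence bins, and each bin was sequenced by Illumina. Repression strength was defined as the top bin index plus one minus the read-weighted mean bin, divided by the unaltered operator's value. Averages included only members reaching ≥30 reads in all replicates with a CV ≤0.5.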"}
{"sequence": "TCCCGACCAGTTTTCGAGA", "TetR repression strength": 0.185}
{"sequence": "TCCCGGCTAGTGGGCGAGA", "TetR repression strength": 0.0419}
{"sequence": "TCCCTGGCAGTTATTGAGA", "TetR repression strength": 0.387}
{"sequence": "TCCCCGTTAGTACAAGAGA", "TetR repression strength": 0.34}
{"sequence": "TCCCCACCAGTCCGGGAGA", "TetR repression strength": 0.207}
{"sequence": "TCCCGTGAAGTACAAGAGA", "TetR repression strength": 0.268}
{"sequence": "TCCCCCATAGTTCGGGAGA", "TetR repression strength": 0.238}
{"sequence": "TCCCAGCGAGTTACAGAGA", "TetR repression strength": 0.238}
{"sequence": "TCCCGAAGAGTCGGAGAGA", "TetR repression strength": 0.227}
{"sequence": "TCCCGCGAAGTCAGAGAGA", "TetR repression strength": 0.382}
{"sequence": "TCCCGTACAGTTACTGAGA", "TetR repression strength": 0.394}
{"sequence": "TCCCATTAAGTTCCAGAGA", "TetR repression strength": 0.313}
{"sequence": "TCCCCTTAAGTGGCCGAGA", "TetR repression strength": 0.19}
{"sequence": "TCCCTATTAGTGTGAGAGA", "TetR repression strength": 0.251}
{"sequence": "TCCCGCTCAGTCATCGAGA", "TetR repression strength": 0.121}
{"sequence": "TCCCAGTAAGTCATCGAGA", "TetR repression strength": 0.307}
{"sequence": "TCCCGGCTAGTTAGCGAGA", "TetR repression strength": 0.485}
{"sequence": "TCCCGATAAGTTTACGAGA", "TetR repression strength": 0.495}
{"sequence": "TCCCACAGAGTTAAAGAGA", "TetR repression strength": 0.207}
{"sequence": "TCCCCATTAGTACGTGAGA", "TetR repression strength": 0.214}
{"sequence": "TCCCTGGCAGTAATCGAGA", "TetR repression strength": 0.221}
{"sequence": "TCCCCGAGAGTGTGGGAGA", "TetR repression strength": 0.152}
{"sequence": "TCCCTATCAGTAGTTGAGA", "TetR repression strength": 0.558}
{"sequence": "TCCCGGCAAGTGGTAGAGA", "TetR repression strength": 0.192}
{"sequence": "TCCCCACGAGTGTGGGAGA", "TetR repression strength": 0.115}
{"sequence": "TCCCTTCGAGTTTAAGAGA", "TetR repression strength": 0.0638}
{"sequence": "TCCCGGTTAGTCAAGGAGA", "TetR repression strength": 0.318}
{"sequence": "TCCCTGATAGTGAGTGAGA", "TetR repression strength": 0.217}
{"sequence": "TCCCTTCAAGTTGGAGAGA", "TetR repression strength": 0.114}
{"sequence": "TCCCGGCCAGTTGGCGAGA", "TetR repression strength": 0.0551}
{"sequence": "TCCCGTCTAGTTTGGGAGA", "TetR repression strength": 0.0524}
{"sequence": "TCCCGGGTAGTGACTGAGA", "TetR repression strength": 0.252}
{"sequence": "TCCCGATGAGTTCAAGAGA", "TetR repression strength": 0.433}
{"sequence": "TCCCCTCCAGTGAAGGAGA", "TetR repression strength": 0.572}
{"sequence": "TCCCAATTAGTTTAAGAGA", "TetR repression strength": 0.236}
{"sequence": "TCCCGAATAGTTTGTGAGA", "TetR repression strength": 0.535}
{"sequence": "TCCCGCAAAGTGGATGAGA", "TetR repression strength": 0.227}
{"sequence": "TCCCGGGGAGTGATTGAGA", "TetR repression strength": 0.343}
{"sequence": "TCCCTCCGAGTGGGGGAGA", "TetR repression strength": 0.0155}
{"sequence": "TCCCATCAAGTATTTGAGA", "TetR repression strength": 0.635}
{"sequence": "TCCCGGAGAGTTGGGGAGA", "TetR repression strength": 0.207}
{"sequence": "TCCCAACTAGTATGTGAGA", "TetR repression strength": 0.329}
{"sequence": "TCCCCTCTAGTGACGGAGA", "TetR repression strength": 0.136}
{"sequence": "TCCCAGAAAGTGTCTGAGA", "TetR repression strength": 0.239}
{"sequence": "TCCCGACGAGTTCTGGAGA", "TetR repression strength": 0.239}
{"sequence": "TCCCAGGAAGTTCCAGAGA", "TetR repression strength": 0.276}
{"sequence": "TCCCTGGAAGTGGAAGAGA", "TetR repression strength": 0.188}
{"sequence": "TCCCATCAAGTGGCAGAGA", "TetR repression strength": 0.618}
{"sequence": "TCCCCATCAGTGGAGGAGA", "TetR repression strength": 0.0881}
{"sequence": "TCCCAGGAAGTAGACGAGA", "TetR repression strength": 0.186}
{"sequence": "TCCCGGGTAGTGTTTGAGA", "TetR repression strength": 0.498}
{"sequence": "TCCCATCAAGTGCTTGAGA", "TetR repression strength": 0.355}
{"sequence": "TCCCTGTGAGTGGAGGAGA", "TetR repression strength": 0.209}
{"sequence": "TCCCCAACAGTGATTGAGA", "TetR repression strength": 0.344}
{"sequence": "TCCCCGCGAGTGATGGAGA", "TetR repression strength": 0.0206}
{"sequence": "TCCCAGTCAGTTGTGGAGA", "TetR repression strength": 0.296}
{"sequence": "TCCCGGACAGTCGCTGAGA", "TetR repression strength": 0.222}
{"sequence": "TCCCCAGGAGTCGGAGAGA", "TetR repression strength": 0.179}
{"sequence": "TCCCAGGGAGTGCCCGAGA", "TetR repression strength": 0.235}
{"sequence": "TCCCCGCCAGTATTGGAGA", "TetR repression strength": 0.218}
{"sequence": "TCCCAGCTAGTCATTGAGA", "TetR repression strength": 0.131}
{"sequence": "TCCCGCTGAGTTGCTGAGA", "TetR repression strength": 0.139}
{"sequence": "TCCCGAAAAGTCCTCGAGA", "TetR repression strength": 0.162}
{"sequence": "TCCCCAGTAGTGTGGGAGA", "TetR repression strength": 0.295}
{"sequence": "TCCCAAACAGTGGAGGAGA", "TetR repression strength": 0.431}
{"sequence": "TCCCCTTCAGTCGGTGAGA", "TetR repression strength": 0.315}
{"sequence": "TCCCCGTTAGTATGTGAGA", "TetR repression strength": 0.296}
{"sequence": "TCCCGCAGAGTGTGCGAGA", "TetR repression strength": 0.361}
{"sequence": "TCCCCAGCAGTGGTGGAGA", "TetR repression strength": 0.175}
{"sequence": "TCCCGTCGAGTTTACGAGA", "TetR repression strength": 0.338}
{"sequence": "TCCCGTCGAGTTAGTGAGA", "TetR repression strength": 0.366}
{"sequence": "TCCCAGGTAGTGAAAGAGA", "TetR repression strength": 0.147}
{"sequence": "TCCCGGAAAGTCGTTGAGA", "TetR repression strength": 0.296}
{"sequence": "TCCCAAAAAGTGTTTGAGA", "TetR repression strength": 0.108}
{"sequence": "TCCCAGCGAGTCGTGGAGA", "TetR repression strength": 0.183}
{"sequence": "TCCCATATAGTGGTAGAGA", "TetR repression strength": 0.236}
{"sequence": "TCCCGTAGAGTAGTGGAGA", "TetR repression strength": 0.0489}
{"sequence": "TCCCGGTGAGTTGACGAGA", "TetR repression strength": 0.318}
{"sequence": "TCCCGTCAAGTGTTAGAGA", "TetR repression strength": 0.291}
{"sequence": "TCCCTTCTAGTGCCCGAGA", "TetR repression strength": 0.546}
{"sequence": "TCCCATATAGTGGTCGAGA", "TetR repression strength": 0.159}
{"sequence": "TCCCGGGCAGTAACCGAGA", "TetR repression strength": 0.373}
{"sequence": "TCCCTTATAGTTTTAGAGA", "TetR repression strength": 0.27}
{"sequence": "TCCCTGAAAGTTGCGGAGA", "TetR repression strength": 0.171}
{"sequence": "TCCCTCTCAGTTGATGAGA", "TetR repression strength": 0.736}
{"sequence": "TCCCGGAAAGTGGGGGAGA", "TetR repression strength": 0.148}
{"sequence": "TCCCCGGGAGTGCTGGAGA", "TetR repression strength": 0.14}
{"sequence": "TCCCAGACAGTGGAGGAGA", "TetR repression strength": 0.129}
{"sequence": "TCCCCGTAAGTGTTCGAGA", "TetR repression strength": 0.473}
{"sequence": "TCCCATCCAGTGTTGGAGA", "TetR repression strength": 0.222}
{"sequence": "TCCCAAGTAGTGGTCGAGA", "TetR repression strength": 0.173}
{"sequence": "TCCCTGAGAGTCTGGGAGA", "TetR repression strength": 0.226}
{"sequence": "TCCCTCGGAGTCGCCGAGA", "TetR repression strength": 0.292}
{"sequence": "TCCCGGCGAGTATGAGAGA", "TetR repression strength": 0.226}
{"sequence": "TCCCTGGAAGTGTCAGAGA", "TetR repression strength": 0.215}
{"sequence": "TCCCGCAAAGTACGTGAGA", "TetR repression strength": 0.00212}
{"sequence": "TCCCGACCAGTTTGGGAGA", "TetR repression strength": 0.109}
{"sequence": "TCCCGTTTAGTGAAAGAGA", "TetR repression strength": 0.218}
{"sequence": "TCCCCCTTAGTTAGGGAGA", "TetR repression strength": 0.299}
{"sequence": "TCCCAGGGAGTTTGGGAGA", "TetR repression strength": 0.171}
{"sequence": "TCCCGCCTAGTGGGAGAGA", "TetR repression strength": 0.268}
{"sequence": "TCCCAGAAAGTCTAAGAGA", "TetR repression strength": 0.144}
